Laboratory results from patent US9907800B2, “Kinase inhibitors and method of treating cancer” (University Health Network, priority 2010, dated 2018).

Columns and labels:
[1] = system: HCT116+/− colon cancer cell line; format: cell-based; settings: Homo sapiens, HCT-116, 120 h, read-out: GI50 Range
[2] = system: T47 D breast cancer cell line; format: cell-based; settings: Homo sapiens, T47D, 120 h, read-out: GI50 Range
[3] = system: PC-3 prostate cancer cell line; format: cell-based; settings: 120 h, read-out: GI50 Range
[4] = system: HCT-15 colon cancer cell line; format: cell-based; settings: Homo sapiens, HCT-15, 120 h, read-out: GI50 Range
[5] = system: BT474 breast cancer cell line; format: cell-based; settings: Homo sapiens, BT-474, 120 h, read-out: GI50 Range
[6] = system: SW 626 ovarian cancer cell line; format: cell-based; settings: Homo sapiens, SW626, 120 h, read-out: GI50 Range
[7] = system: SK-OV-3 ovarian cancer cell line; format: cell-based; settings: Homo sapiens, SK-OV-3, 120 h, read-out: GI50 Range
[8] = system: HCT116+/+ colon cancer cell line; format: cell-based; settings: Homo sapiens, HCT-116, 120 h, read-out: GI50 Range
[9] = system: SKBR3 breast cancer cell line; format: cell-based; settings: Homo sapiens, SK-BR-3, 120 h, read-out: GI50 Range
[10] = system: HS578T breast cancer cell line; format: cell-based; settings: Homo sapiens, Hs-578T, 120 h, read-out: GI50 Range
[11] = system: 184A1 immortalized breast cell line; format: cell-based; settings: 184A1, 120 h, read-out: GI50 Range
[12] = system: MCF-7 luminal breast cancer cell line; settings: 5 days, SRB, 2,2,2-trifluoroacetate salt, read-out: Cell Line GI50 Range MCF-7
[13] = system: HCC1954 basal breast cancer cell line; settings: 5 days, SRB, 2,2,2-trifluoroacetate salt, read-out: Cell Line GI50 Range HCC-1954

COc1ccc2c(c1)[C@]1(CC1c1ccc3c(-c4ccc(N5CCN(C)CC5)nc4)n[nH]c3c1)C(=O)N2 (single isomer, unassigned) [Example A13, (1R*, 2S*)-5′-Methoxy-2-(3-(6-(4-methylpiperazin 1-yl)pyridin-3-yl)-1H-indazol-6-yl)spiro[cyclopropane-1,3′-indolin]-2′-one]
GI50 [1]: 1 to 50 µM
GI50 [2]: 1 to 50 µM
GI50 [3]: 1 to 50 µM
GI50 [4]: 1 to 50 µM
GI50 [5]: 1 to 50 µM
GI50 [6]: 1 to 50 µM
GI50 [7]: 1 to 50 µM
GI50 [8]: 1 to 50 µM
GI50 [9]: 1 to 50 µM
GI50 [10]: 1 to 50 µM

CN(C)Cc1ccc(/C=C/c2n[nH]c3cc(C4C[C@@]45C(=O)Nc4ccccc45)ccc23)cc1 (single isomer, unassigned) [Example A23, (1R*,2S*)-(E)-2-(3-(4-((dimethylamino)methyl)styryl)-1H-indazol-6-yl)spiro[cyclopropane-1,3′-indolin]-2′-one 2,2,2-trifluoroacetate]
GI50 [1]: 1 to 50 µM
GI50 [3]: 1 to 50 µM
GI50 [11]: 1 to 50 µM
GI50 [4]: 1 to 50 µM
GI50 [5]: 1 to 50 µM
GI50 [7]: 1 to 50 µM
GI50 [8]: 1 to 50 µM
GI50 [9]: 1 to 50 µM

CN1CCc2ccc(/C=C/c3n[nH]c4cc([C@@H]5C[C@@]56C(=O)Nc5ccccc56)ccc34)cc2C1 [Example A65, (1R,2S)-2-(3-((E)-2-(2-methyl-1,2,3,4-tetrahydroisoquinolin-7-yl)vinyl)-1H-indazol-6-yl)spiro[cyclopropane-1,3′-indolin]-2′-one 2,2,2-trifluoroacetate salt]
GI50 [12]: < 100 nM
GI50 [13]: 100 to 1000 nM

Structures can show the parent of a compound that is named as a salt.
